Structures are written as SMILES. About 540 (0.36%) of roughly 150,000 compounds showed an effect of 50% or more. The list shows a part of the results.

The source of these data is ChEMBL document CHEMBL4888484, “Replenishing the malaria drug discovery pipeline: Screening and hit evaluation of the MMV Hit Generation Library 1 (HGL1) against asexual blood stage Plasmodium falciparum ,using a nano luciferase reporter read-out” (2022).

The assay relates to Plasmodium falciparum. Kind of assay: Primary screen in NF54 nanoGlo assay, in single point, at 2uM, 72h; a lower Z score goes with more inhibition. The assay is classed as functional, Erythrocyte. The settings on record: timepoint 72 hour.
For orientation: % Inhibition means the change of the read-out against control, counted positive when it falls. For `CCC1(CNC(=O)[C@H]2CCCOC2)CC1`, the “% Inhibition” value worked out at 10% and the Z score is on record as -1.17.
With `Cc1ccc(NC(=O)N2CCCC3CN(C)CCC32)cc1Cl` (stereo unspecified), the “% Inhibition” value was -3% and the Z score was 0.26.
In the same order, the values of `C[C@@H]1Oc2ccc(NC(=O)CCN3C(=O)CCC3=O)cc2NC1=O` are 0% and -0.05.
The like results for `CCn1nncc1CNc1ncc(C)cc1Br` were, in that order, 5% and -0.44.
As to `O=S(=O)(CCNc1ncncn1)N1CCCC1`, the “% Inhibition” value is recorded as 3% and the Z score is listed as -0.47.
Regarding `Cc1nc(C(=O)Nc2ccc3c(c2)OCCN3C)c(C)o1`, the “% Inhibition” value is listed as -3% and the Z score was found to be 0.58.
Take `OCCn1nc(COc2ccc(F)cc2)nc1[C@@H]1CC=CCC1`: the “% Inhibition” value is listed as -4% and the Z score worked out at 0.54.
The like results for `Cc1ccc(CN2CCC3(CC2)COC(=O)O3)c(F)c1F` were, in that order, 0% and 0.04.
The like results for `Cn1cc([C@H]2CCCN(C(=O)c3ccncc3F)C2)cn1` were, in that order, -6% and 1.2.
In the same order, the values of `CC(=O)NC[C@H]1CN(c2ccnc3ccsc23)CCO1` are 0% and -0.03.
For `CCN(C)c1ccccc1NC(=O)CC(F)(F)F`, the “% Inhibition” value was -9% and the Z score is on record as 0.88.
The like results for `CC(C)c1cn2c(C(=O)ON(C)C)cccc2[n+]1C` were, in that order, -13% and 1.55.
In the same order, the values of `Cc1cccc(CN2CCC[C@@]3(CCN(c4nc(-c5ccccc5)no4)C3)C2)c1` are -4% and 0.57.
The like results for `O=C1CCCN1CCN(CCc1c[nH]c2ccccc12)Cc1cccnc1` were, in that order, 0% and -0.05.
In the case of `COCCCn1c(C)c(C)c(S(=O)(=O)c2ccc(C)cc2)c1N`, the “% Inhibition” value is on record as -4% and the Z score amounted to 0.38.
The like results for `CC[C@@](C)(CC(=O)O)NC(=O)c1ccc(F)c(C)c1` were, in that order, 4% and -0.44.
The like results for `COC1CC2CCC(C1)N2S(=O)(=O)c1cccc(C(C)=O)c1` (stereo unspecified) were, in that order, -17% and 2.23.
As to `Cc1c(C(=O)NCc2ccc(F)cc2)cnn1[C@H]1CCS(=O)(=O)C1`, the “% Inhibition” value was 1% and the Z score is -0.09.
Turning to `CCCS(=O)(=O)N1CCCN(C2=NS(=O)(=O)C(c3ccccc3)=C2C)CC1`, the “% Inhibition” value is on record as -15% and the Z score is reported as 1.69.
In the same order, the values of `C[C@@H](c1ccccn1)N(C)Cc1ccc2c(c1)OCO2` are -5% and 0.64.
The like results for `c1ccc2cc(-c3nc([C@H]4CCOC4)no3)ccc2c1` were, in that order, -11% and 2.02.
In the same order, the values of `CC1(C)[C@@H](N(O)C(=O)Nc2cccc(C(F)(F)F)c2)N(c2cccc(C(F)(F)F)c2)C(=O)N1CCC1=CCCCC1` are 1% and -0.07.
Regarding `CC(C)C(CS(=O)(=O)N1CCC[C@H](n2ccnn2)CC1)C(C)C`, the “% Inhibition” value was -5% and the Z score came to 1.16.
The like results for `Cc1nonc1C(=O)N1C[C@H](c2cnn(C)c2)C(C)(C)C1` were, in that order, -8% and 1.18.
The like results for `O=C(Nc1cccc(Cl)c1)OCC1OCCO1` were, in that order, -16% and 1.87.
The like results for `COc1cc(Cl)c(CN2CCCNC(=O)C2)c(OC)c1` were, in that order, -6% and 0.58.
As to `CCC(=O)N1CCN(C(=O)c2ncccc2O)[C@H]2CS(=O)(=O)C[C@H]21`, the “% Inhibition” value is -1% and the Z score was found to be 0.17.
In the same order, the values of `CC1CC(=O)NC2(/C=C/c3ccc(N(C)C)cc3)N1c1ccccc1C2(C)C` (stereo unspecified) are -7% and 0.84.
As for `OC[C@]1(F)CCN(c2nnc(-c3ccccn3)s2)C1`, the “% Inhibition” value was 4% and the Z score is given as -0.82.
The like results for `FC(F)(F)Cn1nnnc1N1CC2(CCOCC2)[C@@H]2CCC[C@@H]21` were, in that order, -5% and 0.71.
In the same order, the values of `CCN1CCN(C(=O)COCc2cc(C)no2)[C@@H](C)C1` are -15% and 2.19.
In the same order, the values of `CN1C(=O)[C@H](OC(=O)COc2ccccc2)N(c2cccc(Cl)c2)C1=O` are 36% and -4.61.
Consider `Cc1c(C)[n+](O)c([C@H](CC(=O)O)c2ccc(OC(F)(F)F)cc2)n1C`, for which the “% Inhibition” value is -13% and the Z score was determined as 1.6.
Regarding `CCn1c(-c2cc(NC(=O)Cc3ccc(OC)cc3Cl)[nH]n2)cc2ccccc21`, the “% Inhibition” value is listed as -10% and the Z score stood at 1.17.
The like results for `C=CCNC(=O)c1nnc(N2CCC(C)CC2)c2ccccc12` were, in that order, 2% and -0.27.
The like results for `Cc1c2c(nn1-c1nc(-c3cccc(O)c3)cs1)CCCC2` were, in that order, -29% and 3.38.
The like results for `O=C(COc1ccc2ccccc2c1Br)N1CCN(C(=O)[C@@H]2CCCO2)CC1` were, in that order, -1% and 0.12.
For the compound `O=C(CNS(=O)(=O)c1ccccc1)NCC(=O)OCc1ccccc1F`, the “% Inhibition” value is reported as -13% and the Z score is reported as 1.76.
In the same order, the values of `COc1cc2c(cc1OC)CN(C(=O)c1cccnc1N(C)C)CC2` are -3% and 0.52.
In the same order, the values of `O=C(COC(c1ccccc1)c1ccccc1)Nc1nccs1` are -9% and 1.34.
In the same order, the values of `O=C1NCCCC[C@@H]1Nc1ncc(C(F)(F)F)cc1Cl` are -9% and 1.36.
As to `Cc1scc(C(=O)NC[C@H]2CCCO2)c1C`, the “% Inhibition” value was -8% and the Z score was determined as 0.72.
For `O=C(C1=CCCC1)N1CCC[C@H](Nc2cccc(F)c2)C1`, the “% Inhibition” value is listed as 9% and the Z score is listed as -1.25.
